# From PubChem BioAssay AID504333 (National Center for Advancing Translational Sciences (NCATS), 2011)
# Hit rate of the full screen: of about 360,000 compounds, about 16,000 (4.4%) were called active. The inconclusive results got no clear call from the source; some entries with a clear call stand among them for comparison. The call rests on the fitted dose curve; in most records, active means well fitted inhibition curve with a large enough effect; inconclusive means small, poorly fitted or top-dose-only effect; inactive means no such curve, though single readings can be large or run the other way. Potencies beside an inconclusive call are fits to weak or partial responses and may not hold up.
# Biological target: Bromodomain adjacent to zinc finger domain protein 2B (Homo sapiens) (UniProt Q9UIF8)
# Assay: qHTS Assay for Inhibitors of BAZ2B; further: nearly all actives have a fitted effect of over 60% in size
# Details: AlphaScreen BAZ2B-H3K14Ac peptide displacement; activity change, negative = inhibition: at 114 µM (top of the series)
# Summary of the method: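 Complex of BAZ2B and biotin-H3K14Ac (50 nM apiece) forms over 30 min at RT, then faces library compounds up to 110 uM for another 30 min; AlphaScreen beads added, 20 min dark incubation, luminescence read.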
# On the % scale 0 is the no-effect control and ±100 the full control effect; potency means the concentration at half of the fitted maximal effect; tags describe the fitted curve by direction and shape.
# UniProt Q9UIF8, sequence (Q9UIF8 whole entry, looked up, the tested form may be a part): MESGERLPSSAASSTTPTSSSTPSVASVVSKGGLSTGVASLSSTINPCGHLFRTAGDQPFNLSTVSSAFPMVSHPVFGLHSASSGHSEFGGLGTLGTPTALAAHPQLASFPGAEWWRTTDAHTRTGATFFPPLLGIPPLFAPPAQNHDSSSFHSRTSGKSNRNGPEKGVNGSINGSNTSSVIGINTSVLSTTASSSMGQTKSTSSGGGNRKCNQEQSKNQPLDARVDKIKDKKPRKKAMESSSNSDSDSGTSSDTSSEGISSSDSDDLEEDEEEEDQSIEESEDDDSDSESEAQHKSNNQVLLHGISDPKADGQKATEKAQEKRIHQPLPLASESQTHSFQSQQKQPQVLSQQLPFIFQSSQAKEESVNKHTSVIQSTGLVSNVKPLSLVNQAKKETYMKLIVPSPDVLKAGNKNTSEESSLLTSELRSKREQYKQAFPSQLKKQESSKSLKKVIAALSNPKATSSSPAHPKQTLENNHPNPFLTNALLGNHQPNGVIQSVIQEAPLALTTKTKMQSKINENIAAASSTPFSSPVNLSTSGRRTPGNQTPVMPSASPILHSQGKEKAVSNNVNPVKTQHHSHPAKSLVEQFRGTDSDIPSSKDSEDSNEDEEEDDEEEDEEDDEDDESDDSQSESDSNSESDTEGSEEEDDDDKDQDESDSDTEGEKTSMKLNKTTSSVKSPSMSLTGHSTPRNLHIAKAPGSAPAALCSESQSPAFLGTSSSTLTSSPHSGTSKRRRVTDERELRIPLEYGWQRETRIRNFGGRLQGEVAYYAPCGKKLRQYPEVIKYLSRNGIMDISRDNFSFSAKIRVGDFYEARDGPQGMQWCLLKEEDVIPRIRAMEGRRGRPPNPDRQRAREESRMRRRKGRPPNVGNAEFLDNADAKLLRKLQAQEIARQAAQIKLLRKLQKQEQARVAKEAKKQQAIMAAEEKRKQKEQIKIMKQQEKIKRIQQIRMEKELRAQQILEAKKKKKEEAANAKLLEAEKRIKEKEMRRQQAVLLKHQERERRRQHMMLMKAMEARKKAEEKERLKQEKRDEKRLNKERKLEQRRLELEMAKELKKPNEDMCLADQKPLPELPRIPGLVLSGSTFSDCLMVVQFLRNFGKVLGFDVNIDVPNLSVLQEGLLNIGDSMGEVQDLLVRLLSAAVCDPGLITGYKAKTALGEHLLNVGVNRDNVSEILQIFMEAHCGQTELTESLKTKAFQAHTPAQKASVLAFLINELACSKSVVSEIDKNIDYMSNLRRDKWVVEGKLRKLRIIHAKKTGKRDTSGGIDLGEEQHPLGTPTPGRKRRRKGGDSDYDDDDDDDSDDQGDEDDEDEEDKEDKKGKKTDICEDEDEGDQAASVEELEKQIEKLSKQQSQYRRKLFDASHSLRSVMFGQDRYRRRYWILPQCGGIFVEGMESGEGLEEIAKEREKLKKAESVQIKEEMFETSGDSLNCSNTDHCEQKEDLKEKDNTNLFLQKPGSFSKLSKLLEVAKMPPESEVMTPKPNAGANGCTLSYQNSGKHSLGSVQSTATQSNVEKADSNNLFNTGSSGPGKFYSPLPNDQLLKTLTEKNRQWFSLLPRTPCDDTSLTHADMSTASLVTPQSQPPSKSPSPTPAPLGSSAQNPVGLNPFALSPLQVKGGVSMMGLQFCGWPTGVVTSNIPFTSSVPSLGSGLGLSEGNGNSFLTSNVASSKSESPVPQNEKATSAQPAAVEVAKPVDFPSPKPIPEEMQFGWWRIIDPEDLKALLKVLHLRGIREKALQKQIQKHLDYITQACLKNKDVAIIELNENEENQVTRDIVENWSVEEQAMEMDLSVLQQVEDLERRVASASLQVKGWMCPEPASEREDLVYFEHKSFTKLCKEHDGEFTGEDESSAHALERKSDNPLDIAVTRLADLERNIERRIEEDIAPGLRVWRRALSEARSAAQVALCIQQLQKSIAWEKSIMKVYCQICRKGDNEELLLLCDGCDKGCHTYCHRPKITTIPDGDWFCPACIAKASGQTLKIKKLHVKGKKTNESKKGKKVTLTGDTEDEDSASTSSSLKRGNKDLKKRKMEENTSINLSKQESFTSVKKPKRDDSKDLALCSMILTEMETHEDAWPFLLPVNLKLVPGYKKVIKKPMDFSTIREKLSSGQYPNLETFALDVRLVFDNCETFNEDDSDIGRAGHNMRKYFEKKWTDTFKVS
Structure (SMILES),Potency,"activity change, negative = inhibition"
COc1cc(/C=C2\SC(=O)N(CC(=O)Nc3ccc(C)cc3)C2=O)cc(Cl)c1OCC(=O)O,active: 14.1 µM,–
CCc1ccccc1NC(=O)CSC1=C(C#N)C(c2ccc3c(c2)OCO3)C2=C(CCCC2=O)N1 (configuration not stated),"inconclusive: 50.1 µM [inhibitor, partial curve]",–
CCOC(=O)CSc1nc(-c2ccccn2)ncc1OC,active: 25.1 µM,–
Cc1sc2ncnc(SCc3ccco3)c2c1C,"inconclusive: 89.1 µM [inhibitor, single point]",–
CCCCC(Sc1nc(N)c(NC(=O)c2ccc(OC)cc2)c(=O)[nH]1)C(=O)O (configuration not stated),"inconclusive: 89.1 µM [inhibitor, single point]",–
O=c1c(-c2ccc(Br)cc2)[n+]([O-])c2ccccc2n1OCc1ccccn1,–,inactive: -0.278%
CC1CCCCN1C(=O)CNCc1ccc(F)cc1 (configuration not stated),active: 79.4 µM,–
COc1ccc(S(=O)(=O)c2c(Nc3ccc(F)cc3)sc(C(=O)c3ccc(C)cc3C)c2N)cc1,"inconclusive: 20 µM [inhibitor, full curve]",–
COc1ccccc1OC(C)C(=O)Nc1ccc2c(c1)n(C)c(=O)n2C (configuration not stated),"inconclusive: 70.8 µM [inhibitor, single point]",–
Cn1c(C(=O)N2CCN(c3ccccn3)CC2)cc2ccccc21,"inconclusive: 63.1 µM [inhibitor, partial curve, poor fit]",–
CCOc1ccc(C(=O)Nc2ccc(N3CCCC3)cc2)cc1,"inconclusive: 79.4 µM [inhibitor, single point]",–
CCN(CCCNC(=O)CCCn1c(=O)[nH]c2ccccc2c1=O)c1cccc(C)c1,"inconclusive: 70.8 µM [inhibitor, single point]",–
COc1ccc(S(=O)(=O)CC(=O)c2cc3cc(Br)ccc3oc2=O)cc1,active: 44.7 µM,–
COc1ccc(NC(=O)c2ccccc2C)cc1,"inconclusive: 89.1 µM [inhibitor, single point]",–
CCOc1ccc(NC(=O)CCCNC(=O)Cn2cnc3sc(C)c(C)c3c2=O)cc1,–,inactive: -18.5%
O=C(CN1C(=O)CCC1=O)Nc1cccc2c1C(=O)NC2=O,–,inactive: 0.797%
Cc1ccc(-c2cnc(NC(=O)CCC(=O)N3CCCCC3)n2C)cc1,"inconclusive: 89.1 µM [inhibitor, single point]",–
O=C1CN(C(=O)c2ccc(Br)o2)C(c2ccc(F)cc2)c2cc(F)ccc2N1 (configuration not stated),–,inactive: -24.2%
CC(C)N(Cc1ccccc1)C(=O)COC(=O)/C=C/c1cnc2ccccc2n1,"inconclusive: 89.1 µM [inhibitor, single point]",–
Cn1cccc1Cc1nnc(SCC(=O)Nc2ccc(F)cc2F)n1-c1ccc(F)cc1,"inconclusive: 89.1 µM [inhibitor, single point]",–
Cc1ccc(CSCC(Nc2ccc(C(=O)O)cc2[N+](=O)[O-])C(=O)O)cc1 (configuration not stated),"inconclusive: 89.1 µM [inhibitor, single point]",–
Cc1ccc(C)c(NC(=O)c2ccccn2)c1,–,inactive: 18.5%
Clc1nc(Cl)nc(-c2cn(-c3ccccc3)c3ccccc23)n1,"inconclusive: 89.1 µM [inhibitor, single point]",–
CCOc1ccc(N2C(=O)/C(=C\c3ccc(OC)c(O)c3)S(=O)(=O)C2c2cccc([N+](=O)[O-])c2)cc1 (configuration not stated),"inconclusive: 50.1 µM [inhibitor, partial curve]",–

Structure (SMILES),Potency,"activity change, negative = inhibition"
Cn1c(C(=O)NCCCN2CCN(c3ccccc3F)CC2)cc2c(=O)n(C)c3ccccc3c21,–,inactive: -13.9%
Cc1ccc([C@H]2Nc3ccc(S(=O)(=O)Nc4cccc(Cl)c4C)cc3[C@H]3C=CC[C@H]32)cc1,"inconclusive: 25.1 µM [inhibitor, partial curve]",–
COc1ccc(C2(CNC(=O)Cc3ccc(OC)c(OC)c3)CCOCC2)cc1,–,inactive: -7.69%
CCC1CCCCN1CC(=O)c1c(C)[nH]c2cc(C)ccc12 (configuration not stated),–,inactive: 2.12%
CC(C)Oc1cccc(C(=O)N/N=C/c2coc3ccccc3c2=O)c1,–,inactive: -0.77%
Cc1cc(C)c(Cn2c(CCNC(=O)c3ccco3)nc3ccccc32)c(C)c1,"inconclusive: 70.8 µM [inhibitor, single point]",–
C=CCc1ccc(OCC(O)CN2CCN(c3ccccc3)CC2)c(OC)c1 (configuration not stated),"inconclusive: 50.1 µM [inhibitor, partial curve]",–
CCOc1cccc(/C(O)=C2/C(=O)C(=O)N(CCOC)C2c2ccco2)c1 (configuration not stated),–,inactive: 8.6%
CS(=O)(=O)c1ccccc1C(=O)N1CCN(S(=O)(=O)c2ccc(C3CCCCC3)cc2)CC1,–,inactive: -32.1%
O=C(NCCc1cnc[nH]1)Nc1cccc(C(F)(F)F)c1,"inconclusive: 35.5 µM [inhibitor, partial curve]",–
COc1cc(NC(=O)C2=C(C)OCCS2)c(Cl)cc1C(=O)NCCN(C)C,–,inactive: -3.67%
CC1=C(C(=O)Nc2cccnc2)C(c2cccc(O)c2)n2nc(SCc3ccccc3)nc2N1 (configuration not stated),"inconclusive: 89.1 µM [inhibitor, single point]",–
COc1ccc(CC(=O)OCc2cc3ccccc3[nH]c2=O)cc1,–,inactive: 5.67%
COc1cc(OC)cc(C(=O)NCc2n[nH]c(=S)n2-c2ccccc2OC)c1,–,inactive: 4.11%
CCN(CC)c1ccc(Nc2cc3n(c(=O)n2)CCc2cc(OC)c(OC)cc2-3)cc1,active: 22.4 µM,–
CCN(CC)S(=O)(=O)c1ccc(NCc2ccccn2)nc1,"inconclusive: 89.1 µM [inhibitor, single point]",–
O=C(Nc1nnc(-c2ccccn2)o1)c1ccc(Br)cc1,"inconclusive: 89.1 µM [inhibitor, single point]",–
COc1cc(/C=N/N=C2/C(=O)Nc3ccccc32)cc(OC)c1O,active: 50.1 µM,–
O=C(O)CN1C(=O)/C(=C\c2ccccc2OCc2ccc(Cl)cc2)SC1=S,"inconclusive: 56.2 µM [inhibitor, partial curve]",–
COc1ccc(-c2cc(C3CCN(Cc4ccc([N+](=O)[O-])cc4)CC3)[nH]n2)cc1,"inconclusive: 44.7 µM [inhibitor, partial curve]",–
Cc1ccc(CNC(=O)c2cc3c(=O)n(C)c4ccccc4c3n2C)cc1,–,inactive: -3.52%
Cc1cc(C(=O)NP(=O)(N2CCOCC2)N2CCOCC2)c(C)n1-c1ccc(Br)cc1,"inconclusive: 56.2 µM [inhibitor, partial curve]",–
COc1ccc(C2=NN(C(=O)CSc3nnc(C)c(=O)n3N)C(c3ccco3)C2)cc1 (configuration not stated),"inconclusive: 79.4 µM [inhibitor, single point]",–
CC[n+]1c(/C=C/c2cc([N+](=O)[O-])ccc2O)ccc2ccccc21,"inconclusive: 89.1 µM [inhibitor, single point]",–

Structure (SMILES),Potency,"activity change, negative = inhibition"
Cc1cc(Sc2nc(N)ncc2[N+](=O)[O-])ncn1,"inconclusive: 79.4 µM [inhibitor, partial curve]",–
Brc1ccc(N=Nc2ccc3ccccc3n2)cc1,"inconclusive: 3.55 µM [inhibitor, full curve]",–
CN(Cc1ccc(Br)cc1)CC(O)COc1cccc(Br)c1 (configuration not stated),active: 79.4 µM,–
O=C(/C=C/c1ccc(Cl)cc1)NC(=S)Nc1ccc(N2CCOCC2)c(Cl)c1,–,inactive: 5.03%
Cc1ccc(NC(=O)C(C)Sc2nc3nc(C)cc(C)n3n2)cc1 (configuration not stated),–,inactive: -5.47%
CSc1nsc(N/N=C/c2ccccc2)c1C#N,–,inactive: -23.7%
Cc1ccc(-c2csc(N(CCO)CCCn3c(C(F)(F)F)nc4ccccc43)n2)cc1,"inconclusive: 50.1 µM [inhibitor, partial curve]",–
CN(C)c1ccc(C(=O)NCCCSc2ccccc2)cc1,"inconclusive: 50.1 µM [inhibitor, partial curve]",–
CCOc1ccc(NC(=O)CSc2nccn2-c2cccc(C)c2C)cc1,"inconclusive: 50.1 µM [inhibitor, partial curve]",–
Cc1ccc(C(=O)N(Cc2ccc3c(c2)OCO3)Cc2nc3ccccc3c(=O)[nH]2)cc1,"inconclusive: 79.4 µM [inhibitor, single point]",–
Cn1c(C(=O)OCC(=O)NCc2ccc(F)cc2)cc2occc21,–,inactive: -8.55%
C=CCNC(=O)/C(C#N)=C/c1c(N2CCN(c3ccc(OC)cc3)CC2)nc2c(C)cccn2c1=O,"inconclusive: 22.4 µM [inhibitor, full curve]",–
COc1ccccc1NC(=O)CCn1cnc2ccccc2c1=O,"inconclusive: 11.2 µM [inhibitor, partial curve, poor fit]",–
CCC(C)(C)NC(=O)CC(c1ccc(OC)cc1)n1cccc1 (configuration not stated),"inconclusive: 44.7 µM [inhibitor, partial curve]",–
CCN1C(=NCC2CC2)N[C@@H](c2cccc(C(F)(F)F)c2)C(C(=O)OC)=C1C,inactive,–
CCOC(=O)[C@@H]1[C@H]2COc3ccccc3[C@@H]2N2C(=O)N(c3ccccc3)C(=O)[C@]12C,–,inactive: -1.04%
Cc1ccc(NC(=O)CN2CCN(c3ccccn3)CC2)c(Cl)c1,–,inactive: -4.84%
NNC(=O)CN1CCCc2ccccc21,–,inactive: -18.7%
Cc1ccc(S(=O)(=O)c2cn(Cc3ccccc3F)c3cc4c(cc3c2=O)OCO4)cc1,–,inactive: 1.98%
CC1=NCC(C)c2c1[nH]c1ccccc21 (configuration not stated),"inconclusive: 35.5 µM [inhibitor, single point]",–
NS(=O)(=O)c1ccc(CCNC(=O)c2cc3ccccc3s2)cc1,"inconclusive: 79.4 µM [inhibitor, single point]",–
CC12CC(NC(=O)N1c1cccc(C(=O)N3CCN(c4ccccc4F)CC3)c1)c1ccccc1O2 (configuration not stated),"inconclusive: 44.7 µM [inhibitor, partial curve]",–
Cc1nn(Cc2ccccc2)c(C)c1NC(=O)CCCn1nc(C)c([N+](=O)[O-])c1C,–,inactive: -4.31%
COc1cc(Cl)c(C)cc1NC(=O)c1cc(CN2CCOCC2)on1,"inconclusive: 79.4 µM [inhibitor, single point]",–
